{"source": "paper PMC4336329", "about": "(PLoS ONE, 2015)", "note": "In all, about 310,000 compounds went through this assay and about 14,000 (4.5%) showed an effect of 50% or more. Effects have a minus sign here. The list shows a part of the results.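 Also: peak tail current of the secondary pulse compared with the same well before compound.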", "data": [{"biological_target": "human ether-à-go-go-related gene (hERG) potassium channel (human, UniProt Q12809)", "sequence (Q12809 whole entry, looked up)": "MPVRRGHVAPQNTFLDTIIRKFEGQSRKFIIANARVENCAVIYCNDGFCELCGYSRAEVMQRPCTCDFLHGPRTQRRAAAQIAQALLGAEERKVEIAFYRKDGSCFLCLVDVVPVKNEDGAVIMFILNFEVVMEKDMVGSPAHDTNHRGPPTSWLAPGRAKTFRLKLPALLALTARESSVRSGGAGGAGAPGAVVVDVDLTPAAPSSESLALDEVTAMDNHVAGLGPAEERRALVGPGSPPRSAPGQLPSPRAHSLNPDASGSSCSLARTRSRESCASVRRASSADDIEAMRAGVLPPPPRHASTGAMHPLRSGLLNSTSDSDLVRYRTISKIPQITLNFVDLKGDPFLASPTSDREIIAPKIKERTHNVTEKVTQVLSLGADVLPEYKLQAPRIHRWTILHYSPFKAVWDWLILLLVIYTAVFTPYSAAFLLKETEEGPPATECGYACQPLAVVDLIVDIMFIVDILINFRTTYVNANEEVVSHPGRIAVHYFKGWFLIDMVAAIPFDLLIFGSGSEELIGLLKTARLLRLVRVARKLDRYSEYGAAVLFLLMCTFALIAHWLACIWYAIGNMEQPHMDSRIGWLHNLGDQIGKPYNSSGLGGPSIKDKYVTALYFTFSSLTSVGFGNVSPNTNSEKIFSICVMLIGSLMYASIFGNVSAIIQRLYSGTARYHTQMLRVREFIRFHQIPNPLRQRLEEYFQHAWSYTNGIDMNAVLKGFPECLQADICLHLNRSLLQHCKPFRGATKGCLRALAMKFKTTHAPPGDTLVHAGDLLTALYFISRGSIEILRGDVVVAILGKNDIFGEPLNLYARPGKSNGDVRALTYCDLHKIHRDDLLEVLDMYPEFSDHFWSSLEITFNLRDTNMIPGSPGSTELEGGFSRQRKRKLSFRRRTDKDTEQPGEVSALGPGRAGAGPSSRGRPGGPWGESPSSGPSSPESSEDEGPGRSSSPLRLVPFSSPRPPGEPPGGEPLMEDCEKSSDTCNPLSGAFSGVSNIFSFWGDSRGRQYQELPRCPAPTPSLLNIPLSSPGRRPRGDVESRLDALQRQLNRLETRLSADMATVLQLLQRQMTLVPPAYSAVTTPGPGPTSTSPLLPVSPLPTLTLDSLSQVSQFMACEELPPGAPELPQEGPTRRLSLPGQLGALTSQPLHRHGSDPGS", "experiment": "primary screen, population patch clamp on CHO cells stably expressing hERG", "units": {"hERG current change (%, negative = inhibition) at 10uM": "%"}, "values": [{"smiles": "Nc1nc(-c2ccco2)c(-c2ccco2)s1", "hERG current change (%, negative = inhibition) at 10uM": -6.16}, {"smiles": "O=C(NC(Nc1ccccn1)C(Cl)(Cl)Cl)c1ccccc1", "note": "(stereo not shown)", "hERG current change (%, negative = inhibition) at 10uM": 9.96}, {"smiles": "Cc1ccnc(-n2c(-c3ccccc3)nc3ccccc3c2=O)c1", "hERG current change (%, negative = inhibition) at 10uM": 8.66}, {"smiles": "O=C1C2C(c3ccccc3)C=CC(c3ccccc3)C2C(=O)N1c1cccnc1", "note": "(stereo not shown)", "hERG current change (%, negative = inhibition) at 10uM": -1.18}, {"smiles": "O=C(CNC(=O)c1ccco1)Nc1ccc(Cl)cc1", "hERG current change (%, negative = inhibition) at 10uM": 19.6}, {"smiles": "O=C(NCc1ccccn1)C(=O)NCC1OCCN1S(=O)(=O)c1ccc(Cl)cc1", "note": "(stereo not shown)", "hERG current change (%, negative = inhibition) at 10uM": -15.2}, {"smiles": "COc1ccc(NS(=O)(=O)c2cccc(C(=O)NNC(=O)c3ccc(C)o3)c2)cc1", "hERG current change (%, negative = inhibition) at 10uM": 7.63}, {"smiles": "O=C(CSc1nnc(-c2ccccc2)c(-c2ccccc2)n1)N1CCOCC1", "hERG current change (%, negative = inhibition) at 10uM": -25.1}, {"smiles": "O=C(O)c1ccc(S(=O)(=O)N2CCC(c3nc(-c4ccccc4Cl)no3)CC2)cc1", "hERG current change (%, negative = inhibition) at 10uM": 5.71}, {"smiles": "COC(=O)c1oc2c(c1C)C(=O)CCC2", "hERG current change (%, negative = inhibition) at 10uM": 7.3}, {"smiles": "Cc1sc(NC(=S)NC(=O)c2ccco2)c(C#N)c1C", "hERG current change (%, negative = inhibition) at 10uM": 8.39}, {"smiles": "CCC(=O)Nc1ccccc1C(=O)OC(c1ccccc1)c1ccccc1", "hERG current change (%, negative = inhibition) at 10uM": -5.78}, {"smiles": "Cn1c(Cc2cccs2)nnc1SCC(=O)N1CCc2ccccc21", "hERG current change (%, negative = inhibition) at 10uM": -19}, {"smiles": "NC(=O)c1ccccc1OCc1cccc2ccccc12", "hERG current change (%, negative = inhibition) at 10uM": 17.2}, {"smiles": "CC(=O)c1cccc(-n2nnnc2SCC(=O)NNC(=O)C(C)C)c1", "hERG current change (%, negative = inhibition) at 10uM": 39.6}, {"smiles": "Cc1ccccc1Nc1nnc(C)c(=O)[nH]1", "hERG current change (%, negative = inhibition) at 10uM": -11.3}, {"smiles": "Cc1[nH]c(C)c(S(=O)(=O)N2CCN(c3cccc(Cl)c3)CC2)c1C(=O)N1CCCCC1", "hERG current change (%, negative = inhibition) at 10uM": -4.51}, {"smiles": "COc1cc2c(C(=O)O)c(C)n(C)c2cc1Br", "hERG current change (%, negative = inhibition) at 10uM": 20.3}, {"smiles": "CCOC(=O)N1N=C(CC)CC1(O)C(F)(F)F", "note": "(stereo not shown)", "hERG current change (%, negative = inhibition) at 10uM": 1.52}, {"smiles": "Cc1ccccc1NC(=O)CN1C(=O)COc2ccc(Cl)cc21", "hERG current change (%, negative = inhibition) at 10uM": 6.61}, {"smiles": "CC1Cc2ccccc2N1C(=S)NC(=O)c1ccco1", "note": "(stereo not shown)", "hERG current change (%, negative = inhibition) at 10uM": 16.2}, {"smiles": "COC(=O)c1cccc(S(=O)(=O)N(Cc2ccco2)Cc2cc3cc(OC)c(OC)cc3[nH]c2=O)c1", "hERG current change (%, negative = inhibition) at 10uM": -4.75}, {"smiles": "CN(C(=O)CN1C(=O)NC(C)(c2cccc(Br)c2)C1=O)C1CCCCC1", "note": "(stereo not shown)", "hERG current change (%, negative = inhibition) at 10uM": -15.5}, {"smiles": "COc1ccc(-c2[nH]ncc2CN2CCCN(c3ccccc3)CC2)c(F)c1", "hERG current change (%, negative = inhibition) at 10uM": -45.7}, {"smiles": "Cc1occc1C(=O)NNC(=O)Cc1ccccc1", "hERG current change (%, negative = inhibition) at 10uM": -5.05}, {"smiles": "COc1ccc(-c2nnc(-c3ccc(N)cc3)o2)cc1", "hERG current change (%, negative = inhibition) at 10uM": -5.64}, {"smiles": "CC(C)(C)c1cc(N)on1", "hERG current change (%, negative = inhibition) at 10uM": 11.1}, {"smiles": "C=CCSc1nnc(-c2ccc([N+](=O)[O-])cc2)o1", "hERG current change (%, negative = inhibition) at 10uM": -0.134}, {"smiles": "CC(C)(C)C(=O)Nc1nnc(SCC(=O)NC2CC2)s1", "hERG current change (%, negative = inhibition) at 10uM": 15.3}, {"smiles": "COc1ccc(CCNC(=O)C2CCN(S(=O)(=O)c3c(C)noc3C)CC2)cc1OC", "hERG current change (%, negative = inhibition) at 10uM": -16.9}, {"smiles": "COc1ccc(/C=N/NC(=O)CNC(=O)c2ccncc2)cc1OC", "hERG current change (%, negative = inhibition) at 10uM": 8.67}, {"smiles": "CCn1c(SCC(=O)NC2CCCCC2)nc2c(c1=O)SCC2", "hERG current change (%, negative = inhibition) at 10uM": 8.02}, {"smiles": "CCc1ccc2c(CN3CCN(Cc4ccccc4)CC3)cc(=O)oc2c1", "hERG current change (%, negative = inhibition) at 10uM": -79.7}, {"smiles": "CCNc1ccc(C(=O)OCC(=O)NCc2ccccc2Cl)cc1[N+](=O)[O-]", "hERG current change (%, negative = inhibition) at 10uM": -6.1}, {"smiles": "O=C1CC(NS(=O)(=O)c2ccccc2F)CN1c1ccc2c(c1)OCCO2", "note": "(stereo not shown)", "hERG current change (%, negative = inhibition) at 10uM": -11.6}, {"smiles": "Cc1ccc(NC(=O)COC(=O)CSC(=S)N2CCOCC2)cc1C", "hERG current change (%, negative = inhibition) at 10uM": 33.5}, {"smiles": "Cc1cccc(OCC(=O)N/N=C/c2cn[nH]c2-c2ccc(Cl)c(Cl)c2)c1", "hERG current change (%, negative = inhibition) at 10uM": 5.1}, {"smiles": "CCN(CC)C(=O)CSc1nc2ccccc2c(=O)n1CCC(=O)N1CCN(c2ccccc2)CC1", "hERG current change (%, negative = inhibition) at 10uM": -49.7}, {"smiles": "Cc1ccc(S(=O)(=O)c2ccccc2)cc1S", "hERG current change (%, negative = inhibition) at 10uM": 2.19}, {"smiles": "N#Cc1ccc(OCc2ccc(C(=O)O)o2)cc1", "hERG current change (%, negative = inhibition) at 10uM": 6.06}, {"smiles": "CSc1ccc(/C=C(/NC(=O)c2ccc(C)cc2)C(=O)Nc2cccc(C)c2)cc1", "hERG current change (%, negative = inhibition) at 10uM": -1.38}, {"smiles": "CCN(c1ccc(NC(=O)CCNC(=O)c2ccco2)cc1)C(C)C", "hERG current change (%, negative = inhibition) at 10uM": 2.02}, {"smiles": "CC(C)Cn1nc(NC(=O)c2ccco2)c2cc3ccccc3nc21", "hERG current change (%, negative = inhibition) at 10uM": 5.34}, {"smiles": "CCOc1ccc(NC(=O)C(C)NC(=O)c2ccccc2Cl)cc1S(=O)(=O)N1CCCC1", "note": "(stereo not shown)", "hERG current change (%, negative = inhibition) at 10uM": -14.3}, {"smiles": "COc1ccc(-n2ncc3c(N4CCc5ccccc54)ncnc32)cc1", "hERG current change (%, negative = inhibition) at 10uM": 0.927}, {"smiles": "CCOc1ccc(OCCC(=O)N(CC)CC(=O)NCc2ccc(Cl)cc2)cc1", "hERG current change (%, negative = inhibition) at 10uM": -60.5}]}]}
